# Source: the supplement of paper PMC8728848
# Some of the results follow.
# B1: MGL2 (Mus musculus), Q8JZN1 (protein)
# chain: MTMRYENFQNLEREEKNQEMRNGDKKGGMESPKFALIPSQSFLWRILSWTHLLLFSLGLSLLLLVVISVIGSQNSQLRRDLGTLRAILDNTTSKIKAEFQSLDSRADNFEKGISSLKVDVEDHRQELQAGRDLSQKVTSLESTLEKREQALKTDLSDLTDHVQQLETDLKALTCQLANLKNNGSEVACCPLHWTEHEGSCYWFSESEKSWPEADKYCRLENSHLVVVNSLEEQNFLQNRLANVLSWMGLTDQNGPWRWVDGTDFDKGFKNWRPLQPDNWHGHMLGGGEDCAHFSYDGRWNDDVCQRHYHWICETELGKASSAHSPQLIASVP
# What was measured:
# Experiment in all cases: glycan array binding signal (z-score within array); higher = stronger binding
# Conditions in all cases: glycan notation: IUPAC condensed, linker removed
# [1] = target: Gal(b1-4)GlcNAc(b1-2)Man(a1-3)[Gal(b1-4)GlcNAc(b1-2)Man(a1-6)]Man(b1-4)GlcNAc(b1-4)GlcNAc
# Summary of the method: (§1)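 The Consortium for Functional Glycomics database supplied 3228 glycan arrays, of which those lacking an available protein sequence were dropped. The binding signal, a within-array Z-score, was averaged across arrays of the same protein sequence and across linkers. Negative scores can be read as non-binding.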
# [2] = target: Gal(b1-4)GlcNAc(b1-2)Man(a1-3)[Gal(b1-4)GlcNAc(b1-2)Man(a1-6)]Man(b1-4)GlcNAc(b1-4)[Fuc(a1-6)]GlcNAc
# Summary of the method: as §1
# [3] = target: Gal(b1-4)GlcNAc(b1-2)Man(a1-3)[Gal(b1-4)GlcNAc(b1-2)Man(a1-6)][Gal(b1-4)GlcNAc(b1-4)]Man(b1-4)GlcNAc(b1-4)[Fuc(a1-6)]GlcNAc
# Summary of the method: as §1
# [4] = target: Gal(b1-4)GlcNAc(b1-2)Man(a1-3)[Gal(b1-4)GlcNAc(b1-2)Man(a1-6)][GlcNAc(b1-4)]Man(b1-4)GlcNAc(b1-4)[Fuc(a1-6)]GlcNAc
# Summary of the method: as §1
# [5] = target: Gal(b1-4)GlcNAc(b1-2)Man(a1-3)[GlcNAc(b1-2)Man(a1-6)]Man(b1-4)GlcNAc(b1-4)GlcNAc
# Summary of the method: as §1
# [6] = target: Gal(b1-4)GlcNAc(b1-2)Man(a1-3)[GlcNAc(b1-4)][Gal(b1-4)GlcNAc(b1-2)Man(a1-6)]Man(b1-4)GlcNAc(b1-4)GlcNAc
# Summary of the method: as §1
# [7] = target: Gal(b1-4)GlcNAc(b1-2)Man(a1-3)[Man(a1-6)]Man(b1-4)GlcNAc(b1-4)GlcNAc
# Summary of the method: as §1
# [8] = target: Gal(b1-4)GlcNAc(b1-2)Man(a1-6)Man(b1-4)GlcNAc(b1-4)GlcNAc
# Summary of the method: as §1
# [9] = target: Gal(b1-4)GlcNAc(b1-2)Man(a1-6)[GlcNAc(b1-2)Man(a1-3)]Man(b1-4)GlcNAc(b1-4)GlcNAc
# Summary of the method: as §1
# [10] = target: Gal(b1-4)GlcNAc(b1-2)Man(a1-6)[Man(a1-3)]Man(b1-4)GlcNAc(b1-4)GlcNAc
# Summary of the method: as §1
# [11] = target: Gal(b1-4)GlcNAc(b1-2)[Gal(b1-4)GlcNAc(b1-4)]Man(a1-3)[Gal(b1-4)GlcNAc(b1-2)Man(a1-6)]Man(b1-4)GlcNAc(b1-4)GlcNAc
# Summary of the method: as §1
# [12] = target: Gal(b1-4)GlcNAc(b1-2)[Gal(b1-4)GlcNAc(b1-4)]Man(a1-3)[Gal(b1-4)GlcNAc(b1-2)[Gal(b1-4)GlcNAc(b1-6)]Man(a1-6)]Man(b1-4)GlcNAc(b1-4)GlcNAc
# Summary of the method: as §1
# [13] = target: Gal(b1-4)GlcNAc(b1-2)[Gal(b1-4)GlcNAc(b1-4)]Man(a1-3)[GlcNAc(b1-4)][Gal(b1-4)GlcNAc(b1-2)Man(a1-6)]Man(b1-4)GlcNAc(b1-4)GlcNAc
# Summary of the method: as §1
# [14] = target: Gal(b1-4)GlcNAc(b1-2)[Gal(b1-4)GlcNAc(b1-4)]Man(a1-3)[GlcNAc(b1-4)][Gal(b1-4)GlcNAc(b1-2)[Gal(b1-4)GlcNAc(b1-6)]Man(a1-6)]Man(b1-4)GlcNAc(b1-4)GlcNAc
# Summary of the method: as §1
# [15] = target: Gal(b1-4)GlcNAc(b1-2)[Gal(b1-4)GlcNAc(b1-6)]Man(a1-6)[Gal(b1-4)GlcNAc(b1-2)Man(a1-3)]Man(b1-4)GlcNAc(b1-4)GlcNAc
# Summary of the method: as §1
# [16] = target: Gal(b1-4)GlcNAc(b1-2)[Gal(b1-4)GlcNAc(b1-6)]Man(a1-6)[Gal(b1-4)GlcNAc(b1-2)Man(a1-3)]Man(b1-4)GlcNAc(b1-4)[Fuc(a1-6)]GlcNAc
# Summary of the method: as §1
# [17] = target: Gal(b1-4)GlcNAc(b1-2)[Gal(b1-4)GlcNAc(b1-6)]Man(a1-6)[GlcNAc(b1-4)][Gal(b1-4)GlcNAc(b1-2)Man(a1-3)]Man(b1-4)GlcNAc(b1-4)GlcNAc
# Summary of the method: as §1
# [18] = target: Gal(b1-4)GlcNAc(b1-2)[Gal(b1-4)GlcNAc(b1-6)]Man(a1-6)[GlcNAc(b1-4)][Gal(b1-4)GlcNAc(b1-2)[Gal(b1-4)GlcNAc(b1-4)]Man(a1-3)]Man(b1-4)GlcNAc(b1-4)[Fuc(a1-6)]GlcNAc
# Summary of the method: as §1
# [19] = target: Gal(b1-4)GlcNAc(b1-3)Gal(b1-3)GalNAc
# Summary of the method: as §1
binder,measurement,setting,value
B1,glycan array binding signal (z-score),[1],-0.293
same,glycan array binding signal (z-score),[2],-0.137
same,glycan array binding signal (z-score),[3],-0.213
same,glycan array binding signal (z-score),[4],-0.247
same,glycan array binding signal (z-score),[5],-0.213
same,glycan array binding signal (z-score),[6],-0.267
same,glycan array binding signal (z-score),[7],0.037
same,glycan array binding signal (z-score),[8],-0.174
same,glycan array binding signal (z-score),[9],-0.15
same,glycan array binding signal (z-score),[10],-0.255
same,glycan array binding signal (z-score),[11],-0.23
same,glycan array binding signal (z-score),[12],-0.247
same,glycan array binding signal (z-score),[13],-0.057
same,glycan array binding signal (z-score),[14],0.034
same,glycan array binding signal (z-score),[15],0.013
same,glycan array binding signal (z-score),[16],-0.193
same,glycan array binding signal (z-score),[17],-0.221
same,glycan array binding signal (z-score),[18],-0.22
same,glycan array binding signal (z-score),[19],-0.14
